# Source: the antibiotic and cytotoxicity screens of Wong et al. (2023)
# The list shows a part of the results.
# Tested on: HSkMC (human skeletal muscle cells)
# Experiment: cytotoxicity call (relative viability < 0.9)
# Conditions: 10 µM
row,SMILES,cytotoxicity call
1,CO[C@@H]1CN(C)C(=O)c2cc(NC(=O)C3CC3)ccc2OC[C@H](C)N(C(=O)Cc2ccccn2)C[C@@H]1C,inactive
2,COc1ccc(NC(=O)Nc2cccc3c2O[C@H](CN(C)S(C)(=O)=O)[C@H](C)CN([C@H](C)CO)C3=O)cc1,inactive
3,CC(=O)N1c2ccccc2C2=NNC(=S)N[C@]21O,inactive
4,C[C@@H]1CCCCO[C@@H](CN(C)Cc2ccc(C(=O)O)cc2)[C@@H](C)CN([C@H](C)CO)C(=O)c2cc(NS(=O)(=O)c3ccc(Cl)cc3)ccc2O1,inactive
5,CC1(C)CC(/C=C/c2ccccc2)=Nc2ccccc2N1,inactive
6,CCCC#Cc1ccc2c(c1)O[C@H](CN(C)Cc1ccc3c(c1)OCO3)[C@H](C)CN([C@H](C)CO)S2(=O)=O,inactive
7,COc1ccc(-n2nc(CCC(=O)N(C)O)cc2-c2ccc(Cl)cc2)cc1,inactive
8,C[C@H](CO)N1C[C@H](C)[C@H](CN(C)C(=O)Nc2ccc(C(F)(F)F)cc2)Oc2ccc(NC(=O)Nc3ccc4c(c3)OCO4)cc2CC1=O,inactive
9,C[C@@H]1CN([C@H](C)CO)C(=O)c2cc(-c3cccc(C(=O)N(C)C)c3)cnc2O[C@H]1CN(C)C(=O)Cc1ccccn1,inactive
10,C[C@H]1CN([C@@H](C)CO)C(=O)Cc2cc(NC(=O)Cc3ccccc3)ccc2O[C@@H]1CN(C)S(=O)(=O)c1cn(C)cn1,inactive
11,C[C@@H]1CN([C@@H](C)CO)S(=O)(=O)c2ccc(-c3ccncc3)cc2O[C@@H]1CN(C)Cc1ccc(Oc2ccccc2)cc1,inactive
12,CC(=O)N1[C@H](CO)[C@H](c2ccccc2)[C@@H]1CNC(=O)CN1CCOCC1,inactive
13,NC(C(=O)O)C(O)c1ccc(O)c(O)c1 (stereo not drawn),inactive
14,C[C@H](CO)N1C[C@H](C)[C@@H](CN(C)Cc2ccc3c(c2)OCCN3C)OCc2cn(nn2)CCCC1=O,inactive
15,O=C(Nc1cccc2cccnc12)[C@@H]1[C@H](c2ccc(Br)cc2)CN1C(=O)OCc1ccc([N+](=O)[O-])cc1,inactive
16,C[C@H](CO)N1C[C@H](C)[C@@H](CN(C)C(=O)NC2CCCCC2)OCCCC[C@H](C)Oc2ccc(NC(=O)Nc3ccc(C(F)(F)F)cc3)cc2C1=O,inactive
17,Cc1cccc(NC(=O)CN2C(=O)CNC2=O)c1,inactive

row,SMILES,cytotoxicity call
1,COc1ccc(NC(=O)N(C)C[C@H]2Oc3ccc(NC(=O)CCCN(C)C)cc3C(=O)N([C@H](C)CO)C[C@@H]2C)cc1,inactive
2,C[C@@H]1CN([C@H](C)CO)C(=O)Cc2cc(NC(=O)Nc3ccc4c(c3)OCO4)ccc2O[C@H]1CN(C)S(=O)(=O)c1cn(C)cn1,inactive
3,C[C@H](CO)N1C[C@H](C)[C@@H](CN(C)C(=O)c2ccncc2)Oc2cc(C#CC3(O)CCCC3)ccc2S1(=O)=O,inactive
4,C[C@H]1CCCCO[C@H](CN(C)C(=O)Nc2cccc3ccccc23)[C@@H](C)CN([C@@H](C)CO)C(=O)c2cc(NC(=O)Nc3ccc4c(c3)OCO4)ccc2O1,inactive
5,CCS(=O)(=O)N1C[C@]2(C1)CN([C@@H](CO)c1[nH]c3cc(ccc3c12)OC)C(=O)Nc1c(noc1C)C,inactive
6,O=C(O)[C@H]1CCCNC1,inactive
7,C[C@H](CO)N1C[C@H](C)[C@@H](CN(C)C(=O)c2cccnc2)Oc2cc(C#CC3(O)CCCC3)ccc2S1(=O)=O,inactive
8,O=C(C[C@@H]1CC[C@H](NS(=O)(=O)c2ccccc2)[C@@H](CO)O1)NCc1ccncn1,inactive
9,C[C@H]1CCCCO[C@@H](CN(C)CC2CCCCC2)[C@@H](C)CN([C@@H](C)CO)C(=O)c2cc(NC(=O)Nc3ccccc3)ccc2O1,inactive
10,C[C@H](CO)N1C[C@H](C)[C@H](CN(C)Cc2ccc(-c3ccccc3)cc2)Oc2c(NS(=O)(=O)c3cccs3)cccc2C1=O,inactive
11,Cl.NCc1ccc(S(N)(=O)=O)cc1,inactive
12,CS(=O)(=O)O.Oc1ccc(C2CNCCc3c2cc(O)c(O)c3Cl)cc1 (stereo not drawn),inactive
13,COc1ccccc1S(=O)(=O)N[C@H]1CC[C@@H](CCNC(=O)C2CC2)O[C@H]1CO,inactive
14,C[C@H]1CN([C@@H](C)CO)S(=O)(=O)c2ccc(-c3cccc(C(=O)N(C)C)c3)cc2O[C@H]1CN(C)C(=O)Cc1ccccn1,inactive
15,C[C@@H]1CCCCO[C@@H](CN(C)Cc2ccccc2)[C@H](C)CN([C@H](C)CO)C(=O)c2cc(NS(=O)(=O)c3ccccc3)ccc2O1,inactive
16,COc1ccc(NC(=O)Nc2ccc3c(c2)C(=O)N([C@@H](C)CO)C[C@@H](C)[C@H](CN(C)Cc2ccc(C(=O)O)cc2)OCCCC[C@H](C)O3)cc1,inactive
